# In article PMC5836133:
# The list shows a part of the results. At the low end of the ranking the order means little.
# Test system: T1, GST-NbGlk1(82-244)
# T1 sequence: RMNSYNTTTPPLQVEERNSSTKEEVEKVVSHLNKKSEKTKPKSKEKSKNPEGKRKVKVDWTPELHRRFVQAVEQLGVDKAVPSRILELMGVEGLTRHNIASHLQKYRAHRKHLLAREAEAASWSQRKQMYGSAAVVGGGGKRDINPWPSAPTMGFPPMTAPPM
# Assay: protein-binding microarray;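 note: rank-based score ranging −0.5 to +0.5 with E above 0.45 taken as significant binding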
# Conditions: NbGlk1 is a Golden2-like transcription factor of Nicotiana benthamiana; high values mean tight binding; most listed sequences are background and not binding sites; double strand, one strand shown
row,Sequence,binding signal
1,AGGATTCC,0.448 E-score
2,CACCACGC,-0.166 E-score
3,ACTGGGCT,-0.256 E-score
4,AGGCACAA,-0.157 E-score
5,AAGCTACG,-0.185 E-score
6,AATCCCAC,0.318 E-score
7,AACGGGAG,-0.0516 E-score
8,AAGACAGG,0.0457 E-score
9,AAATGCCT,-0.16 E-score
10,ATTACACG,0.268 E-score
11,ACTAGGCA,-0.0358 E-score
12,CACACGAG,-0.0638 E-score
13,AATATTCA,0.131 E-score
14,AGGTGTCA,-0.142 E-score
15,AATCGTTA,0.165 E-score
16,AATTAGCT,-0.0741 E-score
17,ATTGTGCC,0.138 E-score
18,AGGTACGG,-0.0858 E-score
19,ACAGCCGT,-0.222 E-score
20,ACTCCGTA,-0.0316 E-score
21,AAATATTT,0.323 E-score
22,ATTGCGTC,0.271 E-score

row,Sequence,binding signal
1,AGGGAAAA,-0.0488 E-score
2,CAATTTGC,-0.0427 E-score
3,ACCGCTCG,-0.0968 E-score
4,ATTTGTGA,0.245 E-score
5,AATCTACG,0.38 E-score
6,ATTACATA,0.267 E-score
7,CACACGCG,-0.0846 E-score
8,AGCGTTCA,-0.196 E-score
9,ATACAGGC,0.0934 E-score
10,ACAAAGTC,-0.159 E-score
11,ACGGTGCT,-0.239 E-score
12,AATTCATC,-0.0313 E-score
13,ATCGGGGA,0.273 E-score
14,AGCTAGTC,-0.207 E-score
15,AGTTGCAT,-0.0683 E-score
16,AGAATCAG,0.39 E-score
17,AGCCTATA,0.0255 E-score
18,ATAATACA,0.199 E-score
19,AATATATT,0.285 E-score
20,ATGTTGAC,-0.00987 E-score
21,ACGAGAAG,-0.0907 E-score
22,AATTATTG,0.0196 E-score

row,Sequence,binding signal
1,AGGGGTTG,0.0254 E-score
2,ATTCCGCG,0.256 E-score
3,AAGTATCT,0.249 E-score
4,AACCCTCA,-0.151 E-score
5,CAATTAGC,-0.0547 E-score
6,ATCATTGA,0.15 E-score
7,CAGCGGAA,-0.0496 E-score
8,ACATTCAT,0.0302 E-score
9,AGCATAGG,-0.0275 E-score
10,CAAAAGGG,-0.102 E-score
11,AACGAGCA,-0.0291 E-score
12,AACAAAAG,-0.00606 E-score
13,AATTCGAA,0.076 E-score
14,AACTCCTA,-0.0272 E-score
15,AGCAGAGC,-0.145 E-score
16,AAACATAC,-0.00662 E-score
17,CAGCCCAG,-0.288 E-score
18,CACATGAA,0.152 E-score
19,ACTGGGTG,-0.218 E-score
20,CACGACCC,-0.203 E-score
21,ATCCCTTA,0.215 E-score
22,ACCAATTA,0.0139 E-score

row,Sequence,binding signal
1,AACTTTGT,-0.0974 E-score
2,ATAAGATC,0.33 E-score
3,AGTCCGCA,-0.0737 E-score
4,ACCACAAG,-0.109 E-score
5,AACTTCCC,-0.0859 E-score
6,AGTAGTTG,-0.00343 E-score
7,ATTCAATG,0.0604 E-score
8,ATGCAATA,0.0779 E-score
9,AGTGCCTA,-0.225 E-score
10,AGATAACT,0.0104 E-score
11,AGTCAATC,-0.103 E-score
12,AAATCCGA,0.427 E-score
13,CAAAATTG,0.108 E-score
14,ATCACGGA,0.159 E-score
15,ACCTCCAG,-0.305 E-score
16,ACCGGGGC,-0.133 E-score
17,ATGCCAGG,-0.0363 E-score
18,ATTGTCCA,0.193 E-score
19,AAGCTAGC,-0.121 E-score
20,ATCACCTC,0.103 E-score
21,ATCCCCCG,0.123 E-score
22,ATACTAAT,0.126 E-score

row,Sequence,binding signal
1,ACATAGCA,-0.0674 E-score
2,AACACCCC,-0.227 E-score
3,ATACCGAA,0.193 E-score
4,ACCCGCCG,-0.147 E-score
5,ACCCTAGT,-0.0635 E-score
6,ACTTCCAG,-0.235 E-score
7,AGTAATAT,0.29 E-score
8,ATATAGAC,0.0704 E-score
9,ACACTAGT,-0.0471 E-score
10,ACACCCAC,-0.11 E-score
11,AACTCGCT,-0.17 E-score
12,AGATTGCT,0.426 E-score
13,AAGCCAAA,-0.205 E-score
14,CAAAGGGG,-0.11 E-score
15,ATCACATC,0.191 E-score
16,AAGAGGCT,-0.276 E-score
17,AACAGGTT,-0.139 E-score
18,AAATAGAC,-0.0414 E-score
19,ATTAGGGA,-0.017 E-score
20,AACAAGGT,-0.1 E-score
21,CAAGATGG,-0.164 E-score
22,AAAGGATA,0.173 E-score
